From US12338279B2, “Selective and potent inhibitory antibodies of myostatin activation” (SCHOLAR ROCK, INC., priority 2022, dated 2025) come the findings set out here.

B1: Ab111: anti-pro/latent myostatin antibody; CDRs in Tables 2d-f, variable domains Table 3, chains Table 4 (antibody)
heavy: QVQLVQSGAEVKKPGASVKVSCKVSGYTFTSNDIHWVRQAPGKGLEWMGGIFPIFGTTIYAQKFQGRVTMTEDTSTDTAYMELSSLKSEDTAVYYCAREGLGYDFDYWGQGTLVTVSSASTKGPSVFPLAPCSRSTSESTAALGCLVKDYFPEPVTVSWNSGALTSGVHTFPAVLQSSGLYSLSSVVTVPSSSLGTKTYTCNVDHKPSNTKVDKRV[human IgG4 Fc with S228P (EU numbers) left out]
light: DIQMTQSPSSVSASVGDRVTITCRASQNIGNWLAWYQQKPGKAPKLLIYSASALQSGVPSRFSGSGSGTDFTLTISSLQPEDFANYYCQQSYGAPMYSFGGGTKVEIKRTVAAPSVFIFPPSDEQLKSGTASVVCLLNNFYPREAKVQWKVDNALQSGNSQESVTEQDSKDSTYSLSSTLTLSKADYEKHKVYACEVTHQGLSSPVTKSFNRGEC
B2: Ab134: anti-pro/latent myostatin antibody; CDRs in Tables 2d-f, variable domains Table 3, chains Table 4 (antibody)
heavy: EVQLVESGGGLVQPGGSLRLSCAASGSAFSSYGMSWVRQAPGKGLELVASINSNGGSTYYPDSVKGRFTISRDNAKNSLYLQMNSLRAEDTAVYYCARDLLVEFLKWSHYYGMDVWGQGTTVTVSSASTKGPSVFPLAPCSRSTSESTAALGCLVKDYFPEPVTVSWNSGALTSGVHTFPAVLQSSGLYSLSSVVTVPSSSLGTKTYTCNVDHKPSNTKVDKRV[human IgG4 Fc with S228P (EU numbers) left out]
light: DIVMTQSPLSLPVTPGEPASISCRSSQSLLHSSGHNFLHWYLQKPGQSPQLLIYEVSNRVSGVPDRFSGSGSGTDFTLKISRVEAEDVGVYYCMQQTQYPPTFGGGTKVEIKRTVAAPSVFIFPPSDEQLKSGTASVVCLLNNFYPREAKVQWKVDNALQSGNSQESVTEQDSKDSTYSLSSTLTLSKADYEKHKVYACEVTHQGLSSPVTKSFNRGEC
B3: Ab115: anti-pro/latent myostatin antibody; CDRs in Tables 2d-f, variable domains Table 3, chains Table 4 (antibody)
heavy: QVQLVQSGAEVKKPGASVKVSCKVSGYAFTNYNIHWVRQAPGKGLEWMGGINPRTGGTIYAQKFQGRVTMTEDTSTDTAYMELSSLKSEDTAVYYCAKDIYTGVAVAGSGMDYWGQGTLVTVSSASTKGPSVFPLAPCSRSTSESTAALGCLVKDYFPEPVTVSWNSGALTSGVHTFPAVLQSSGLYSLSSVVTVPSSSLGTKTYTCNVDHKPSNTKVDKRV[human IgG4 Fc with S228P (EU numbers) left out]
light: DIQMTQSPSSVSASVGDRVTITCRASQGISTHLAWYQQKPGKAPKLLIYGASNLESGVPSRFSGSGSGTDFTLTISSLQPEDFANYYCQQANSFPWTFGGGTKVEIKRTVAAPSVFIFPPSDEQLKSGTASVVCLLNNFYPREAKVQWKVDNALQSGNSQESVTEQDSKDSTYSLSSTLTLSKADYEKHKVYACEVTHQGLSSPVTKSFNRGEC
B4: Ab129: anti-pro/latent myostatin antibody; CDRs in Tables 2d-f, variable domains Table 3, chains Table 4 (antibody)
heavy: QVQLVQSGAEVKKPGASVKVSCKVSGFNYPRSAIHWVRQAPGKGLEWMGGINPSGEATIYAQKFQGRVTMTEDTSTDTAYMELSSLKSEDTAVYYCARDSSPQWLVTAGVYFYGMDVWGQGTTVTVSSASTKGPSVFPLAPCSRSTSESTAALGCLVKDYFPEPVTVSWNSGALTSGVHTFPAVLQSSGLYSLSSVVTVPSSSLGTKTYTCNVDHKPSNTKVDKRV[human IgG4 Fc with S228P (EU numbers) left out]
light: B3 light with G28S, T31N, H32W, G50H, N53T, E55Q, A91Y, N92S, F94T
B5: Ab114: anti-pro/latent myostatin antibody; CDRs in Tables 2d-f, variable domains Table 3, chains Table 4 (antibody)
heavy: QVQLVQSGAEVKKPGASVKVSCKVSGGTFRSYTIHWVRQAPGKGLEWMGGMNPSSGHTIYAQKFQGRVTMTEDTSTDTAYMELSSLKSEDTAVYYCARGLDYGEGYYYYGMDVWGQGTTVTVSSASTKGPSVFPLAPCSRSTSESTAALGCLVKDYFPEPVTVSWNSGALTSGVHTFPAVLQSSGLYSLSSVVTVPSSSLGTKTYTCNVDHKPSNTKVDKRV[human IgG4 Fc with S228P (EU numbers) left out]
light: DIQMTQSPSSVSASVGDRVTITCRASQGISESLAWYQQKPGKAPKLLIYSASSLESGVPSRFSGSGSGTDFTLTISSLQPEDFANYYCQQGYSSPPYTFGGGTKVEIKRTVAAPSVFIFPPSDEQLKSGTASVVCLLNNFYPREAKVQWKVDNALQSGNSQESVTEQDSKDSTYSLSSTLTLSKADYEKHKVYACEVTHQGLSSPVTKSFNRGEC
B6: Ab139: anti-pro/latent myostatin antibody; CDRs in Tables 2d-f, variable domains Table 3, chains Table 4 (antibody)
heavy: EVQLVESGGGLVQPGGSLRLSCAASGFTFSSYGMSWVRQAPGKGLELVASFTGSGAAYYPDSVKGRFTISRDNAKNSLYLQMNSLRAEDTAVYYCARDLLIRFLEWSHYYGMDVWGQGTTVTVSSASTKGPSVFPLAPCSRSTSESTAALGCLVKDYFPEPVTVSWNSGALTSGVHTFPAVLQSSGLYSLSSVVTVPSSSLGTKTYTCNVDHKPSNTKVDKRV[human IgG4 Fc with S228P (EU numbers) left out]
light: B2 light with V56S, M94Q
B7: Ab138: anti-pro/latent myostatin antibody; CDRs in Tables 2d-f, variable domains Table 3, chains Table 4 (antibody)
heavy: B2 heavy with S27F, A28T, S30T, N52T, S53G, N54S, G55K, S57E, E103R, K106E
light: B2 light with V56T, V60A, S61P, V63I, M94Q, Q96A, Y99F, P101R, T102P
B8: Ab140: anti-pro/latent myostatin antibody; CDRs in Tables 2d-f, variable domains Table 3, chains Table 4 (antibody)
heavy: B6 heavy with A56G, A57T, L99N
light: B2 light with V60E, M94Q
B9: Ab132: anti-pro/latent myostatin antibody; CDRs in Tables 2d-f, variable domains Table 3, chains Table 4 (antibody)
heavy: B6 heavy with A56G, A57T
light: B2 light with M94Q

Numbering of substitutions follows the chain as printed.

Test system in the first series: not listed separately
Description: AC-SINS self-interaction (aggregation behavior). The format is physicochemical. The note with it: cutoff shift >5 nm in plasmon wavelength. How it is done:
The antibodies were tested for aggregation behavior by affinity capture self-interaction nanoparticle spectroscopy (AC-SINS). Gold nanoparticles were coated with polyclonal antibodies that are specific for human monoclonal antibodies and the monoclonal antibodies are captured by the conjugates. The polyvalency of the monoclonal antibody conjugates amplifies the attractive self-interactions, i.e., aggregation between the adsorbed antibodies. This leads to reduced inter-particle separation distances and is detected by a change in color of the gold colloid solution, which was quantified by a change in the wavelength of maximum absorbance (plasmon wavelength). Plasmon wavelength of 530 nm was used as the reported value for unaggregated gold nanoparticles. Antibodies with a tendency to self-aggregate shift the plasmon wavelength toward the red end of the spectrum. A shift of greater than 5 nm (i.e., >5 nm) in plasmon wavelength was used as the cutoff indicative of self-interacting antibodies.
With B1, the “aggregation behavior by AC-SINS” value is “displayed aggregation behavior”.

Turning to B2, the “aggregation behavior by AC-SINS” value is “did not display aggregation behavior”.

The subject of another series is biotinylated human pro-myostatin. Briefly: Biacore 8k SPR binding affinity, human pro-myostatin.
Details: not given
The text has this: (§1) The Biacore™ 8 k SPR system was utilized to evaluate the binding affinity of myostatin antibodies to biotinylated human, murine, and cyno pro-myostatin. Biotin CAPture kit and sensor chips (Cytiva) were utilized in these experiments to immobilize the various antigens, followed by flowing a range of concentrations of each of the test antibodies.
For orientation: SPR reads the build-up and loss of mass on a sensor chip optically.
As for B3, the “Ka” value was 406000 M⁻¹ s⁻¹ and the “Kd (1/s)” value came to 0.00123 s⁻¹.

Consider B4, for which the “Ka” value was 140000 M⁻¹ s⁻¹ and the “Kd (1/s)” value was 0.000307 s⁻¹.

B5: the “Ka” value was found to be 4.23e+06 M⁻¹ s⁻¹ and the “Kd (1/s)” value was found to be 0.00735 s⁻¹.

For B6, the “Ka” value was 1.9e+07 M⁻¹ s⁻¹ and the “Kd (1/s)” value turned out to be 0.0023 s⁻¹.

Turning to B7, the “Ka” value came to 5.27e+06 M⁻¹ s⁻¹ and the “Kd (1/s)” value amounted to 0.000577 s⁻¹.

As for B8, the “Ka” value worked out at 6.53e+06 M⁻¹ s⁻¹ and the “Kd (1/s)” value was determined as 0.000711 s⁻¹.

The test system of a further series is biotinylated murine pro-myostatin. Briefly: Biacore 8k SPR binding affinity, murine pro-myostatin. Also on record: species or system mouse.
Details: not given
Source text: as §1
For B3, the “Ka” value amounted to 450000 M⁻¹ s⁻¹ and the “Kd (1/s)” value worked out at 0.00137 s⁻¹.

As for B4, the “Ka” value turned out to be 117000 M⁻¹ s⁻¹ and the “Kd (1/s)” value was 0.000496 s⁻¹.

Consider B5, for which the “Ka” value was 3.31e+06 M⁻¹ s⁻¹ and the “Kd (1/s)” value came out at 0.0208 s⁻¹.

In a further series the test system is total myostatin in serum. Briefly: Circulating total myostatin in serum (acidification ELISA), dexamethasone model. The format is in vivo, mouse. The settings on record: as compared to apitegromab. An excerpt:
Briefly, serum samples were acidified at low pH (e.g., pH ˜2.5) to dissociate the bound antibody from the immune complex and to convert all myostatin in the sample to the active form of growth factor (i.e., mature myostatin). Samples were then neutralized and assayed for the presence of mature myostatin on ELISA plates coated with anti-mature myostatin antibodies as capture reagents.
Consider B9, for which the “accumulation of total or latent myostatin in serum samples from dosed subjects” value was “little or no accumulation of total myostatin”.
